From PubChem BioAssay AID588855 (National Center for Advancing Translational Sciences (NCATS), 2011)
“And” between values parts separate entries of the source, which are not always exact repeats. Equal values may be shown once. Hit rate of the full screen: of about 410,000 compounds, about 5,000 (1.2%) were called active. The inconclusive results got no clear call from the source; some entries with a clear call stand among them for comparison. The call rests on the fitted dose curve; in most records, active means well fitted inhibition curve with a large enough effect; inconclusive means small, poorly fitted or top-dose-only effect; inactive means no such curve, though single readings can be large or run the other way. A potency beside an inconclusive call is a rough fit, not a confirmed value. Some compounds were tested as several samples or in several runs, with calls that do not always agree.

Experiment: qHTS for Inhibitors of TGF-b; further: nearly all actives have a fitted effect of over 65% in size
Details: HepG2 CAGA-GFP TGF-b/SMAD3 reporter, GFP fluorescence, 18 h, TGF-beta stimulated, 500 pg/mL final; series mostly up to 46.1 µM
Procedure, shortened: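 Read-out: total well GFP (ex488/em500-530) summed from mean per-cell fluorescence. Cells: HEPG2 CAGA-GFP, 1% FBS DMEM, 18 h at 37 degrees C with 500 pg/mL final TGF-beta. Unstimulated wells served as the full-inhibition control; stimulated DMSO wells = 0%.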
Potency means the concentration at half of the fitted maximal effect; tags describe the fitted curve by direction and shape.

| SMILES | Potency |
| --- | --- |
| Nc1cc2c(cc1Cl)-c1ccc(Cl)cc1C2 | inactive |
| COc1ccc(NC(=S)N/N=C/c2cccn2Cc2ccc(F)cc2Cl)cc1 | inactive |
| CCOC(=O)N1CCN(C(=O)c2cn(C)c3ccc(S(=O)(=O)N4CCCC4)cc3c2=O)CC1 | inconclusive: 6.31 µM [inhibitor, single point] |
| COc1cccc(C(=O)Nc2ccc(-c3nnc(-c4ccco4)o3)cc2)c1 | inactive |
| O=C1N[C@H](Cc2ccccc2)COC(=O)[C@@H](Cc2ccc(F)cc2)C/C=C\C[C@H]1CC(=O)N(CCO)Cc1ccccc1 | inconclusive: 35.5 µM [inhibitor, partial curve, poor fit] |
| CC(C)c1ccc(NC(=S)NCCc2c[nH]c3ccccc23)cc1 | inconclusive: 35.5 µM [inhibitor, single point] |
| Nc1nc(SCC(=O)N2N=C(c3ccc(Cl)cc3)CC2c2ccco2)n[nH]1 (centres undefined) | inactive |
| Cc1cccc(-n2ncc3c(N4CCN(CCO)CC4)ncnc32)c1 | inactive |
| CC(=O)C(Sc1nc(NC(C)(C)C)nc(N(C)C)n1)C(C)=O | inactive |
| CN(C)CCNc1ncnc2c1sc1nc(-c3ccccc3)c3c(c12)CCCC3 | inconclusive: 22.4 µM [inhibitor, single point] |
| Cc1ccccc1OCCCSc1nc2ccccc2[nH]1 | inconclusive: 35.5 µM [inhibitor, single point] |
| COC(=O)c1ccc2c(=O)n(CCCCCC(=O)NC(C)C)c(=O)[nH]c2c1 | active: 25.1 µM |
| O=C(Nc1nnc(SCc2ccccc2)s1)C1=COCCO1 | inconclusive: 3.55 µM [inhibitor, single point] |
| CCOc1ccc(C(O)(CCC(C)C)C(CN2CCOCC2)c2ccccc2)cc1 (centres undefined) | inconclusive: 35.5 µM [inhibitor, single point] |
| C[C@@H]1CCC(=O)N(C[C@@H](C)CSc2ccc(Br)cc2)CC1 | inconclusive: 12.6 µM [inhibitor, single point] and inconclusive: 112 nM [inhibitor, full curve, poor fit] |
| COc1cc(CNCCc2ccccc2)cc(Cl)c1OCc1ccccc1 | inconclusive: 35.5 µM [inhibitor, single point] |
| Cc1ccc(S(=O)(=O)CCN2CCC(n3cccc3)CC2)cc1 | inactive |
| CCCc1cc(=O)[nH]c(SCC(=O)Nc2nc3ccc(OCC)cc3s2)n1 | inconclusive: 35.5 µM [inhibitor, single point] |
| COC(=O)C[C@H]1c2cc(C(F)(F)F)ccc2S(=O)(=O)N1C1CCCCC1 | inconclusive: 17.8 µM [inhibitor, single point] |
| COc1ccc(NC(C)C(=O)N/N=C/c2ccc([N+](=O)[O-])s2)cc1 (centres undefined) | active: 12.6 µM |
| O=C(Nc1ccc(N2CCN(C(=O)c3ccco3)CC2)cc1)c1cccs1 | inconclusive: 35.5 µM [inhibitor, single point] |
| COc1cc2ccnc(C=O)c2cc1OC | inactive |

| SMILES | Potency |
| --- | --- |
| CCOc1ccccc1Nc1nnc(SCC(=O)NC2CC2)s1 | inactive |
| C=CCNc1nc(NCCCN2CCCC2=O)c2sc(-c3ccccc3)cc2n1 | inconclusive: 35.5 µM [inhibitor, single point] |
| COc1ccc(C)cc1NC(=O)CSc1nnc(CC(=O)Nc2ccccc2C)n1C | inconclusive: 6.31 µM [inhibitor, single point] |
| CCCCN(C1CCS(=O)(=O)C1)S(=O)(=O)c1ccc(OC)c(OC)c1 (centres undefined) | inconclusive: 5.62 µM [inhibitor, single point] |
| CCn1cc([N+](=O)[O-])c(C(=O)N2N=C(c3ccc4ccccc4c3)CC2c2cc(Br)ccc2O)n1 (centres undefined) | active: 20 µM |
| CCCCOc1ccc(CSC(CC(=O)O)C(=O)O)cc1 (centres undefined) | inconclusive: 35.5 µM [inhibitor, single point] |
| COc1ccc(OC)c(S(=O)(=O)ON2C(=O)c3ccccc3C2=O)c1 | inconclusive: 35.5 µM [inhibitor, single point] |
| O=S(=O)(c1ccccc1)c1nc(-c2ccccc2)oc1N1CCN(c2cccc(Cl)c2)CC1 | inconclusive: 1.26 µM [inhibitor, partial curve, poor fit] |
| Cc1ccc(-c2csc(N(CCCN(C)C)C(=O)c3ccco3)n2)cc1 | inconclusive: 3.16 µM [inhibitor, single point] |
| CCc1ccc(NC(=O)N(Cc2cn(CC)c3ccccc23)C2CCCCC2)cc1 | inconclusive: 3.55 µM [inhibitor, partial curve, poor fit] |
| C=CC[C@@H](Cc1ccc(F)cc1)C(=O)OC[C@@H]1CCCN1C(=O)[C@@H](CC=C)CC(=O)N(CCO)Cc1ccccc1 | inconclusive: 8.91 µM [inhibitor, partial curve, poor fit] |
| Cc1c(Cl)cccc1NC(=O)C(C)N(c1ccccc1)S(C)(=O)=O (centres undefined) | inconclusive: 0.631 µM [inhibitor, full curve, poor fit] |
| CCOC(=O)/C(C#N)=C1/C=C(C)NC(c2ccccc2O)=N1 | inconclusive: 5.62 µM [inhibitor, partial curve, poor fit] |
| COc1cccc(CN2CCN(C(=O)Nc3ccc([N+](=O)[O-])cc3)CC2)c1 | inconclusive: 11.2 µM [inhibitor, partial curve] |
| Nc1ncnc2c1ncn2[C@@H]1O[C@H](COS(=O)(=O)O)[C@@H](O)[C@H]1O | inactive |
| Cn1cc(C(=O)N2CCN(c3cccc(Cl)c3)CC2)c(=O)c2cc(S(=O)(=O)N3CCOCC3)ccc21 | inactive |
| Cc1ccc2[nH]cc(C(=O)CN3CCN(c4ccccn4)CC3)c2c1 | inconclusive: 3.16 µM [inhibitor, single point] |
| CCOc1ccccc1Nc1ncnc2c1c(-c1ccccc1)cn2-c1ccc(OC)cc1 | inactive |
| O=C(O)c1ccccc1NC(=O)C(Cc1ccccc1)N1C(=O)c2ccccc2C1=O (centres undefined) | inconclusive: 3.98 µM [inhibitor, single point] |
| Cc1cc(C)c(C#N)c(SCC(=O)N(C)C2CCCCC2)n1 | inconclusive: 6.31 µM [inhibitor, single point] |
| COc1nc(C)ccc1-c1noc(-c2cccs2)n1 | inconclusive: 5.62 µM [inhibitor, full curve] |
| CCCCn1c(N)c(N(CCC(C)C)C(=O)c2cccc(S(=O)(=O)N3CCN(C)CC3)c2)c(=O)[nH]c1=O | inconclusive: 1.41 µM [inhibitor, partial curve, poor fit] |

| SMILES | Potency |
| --- | --- |
| O=C1c2[nH]nc(-c3ccccc3O)c2C(c2ccc(Cl)cc2)N1CCc1ccccc1 (centres undefined) | active: 20 µM |
| CCCCOCCCNS(=O)(=O)c1ccccc1 | inconclusive: 5.62 µM [inhibitor, single point] |
| O=C(C1CC(=O)N(c2ccc(F)cc2)C1)N1CCOCC1 (centres undefined) | inconclusive: 35.5 µM [inhibitor, single point] |
| Cc1csc2c(N3CCN(C(=S)Nc4ccc(C(F)(F)F)cc4)CC3)ncnc12 | inconclusive: 17.8 µM [inhibitor, single point] |
| Cc1cc2nc(-c3cccc(NC(=O)c4ccc(Br)o4)c3C)oc2cc1C | inactive |
| CCOc1ccc(C(=O)Nc2ccc(-c3nc4ccccc4s3)c(C)c2)cc1OCC | inconclusive: 11.2 µM [inhibitor, partial curve, poor fit] |
| O=S(=O)(/N=C(\Sc1ccc(Cl)cc1)c1ccccc1)c1ccccc1 | inconclusive: 3.16 µM [inhibitor, single point] |
| CC(C)OCCCNc1nc(-c2ccccc2)nc2ccccc12 | inconclusive: 22.4 µM [inhibitor, single point] |
| COC(=O)C1CCN(S(=O)(=O)CCNC(=O)c2ccccc2)CC1 | inactive |
| CCOC(=O)C1=CC[C@@H](c2ccccc2)N(S(=O)(=O)c2ccc(C)cc2)[C@H]1C#N | inconclusive: 35.5 µM [inhibitor, single point] |
| CCc1ccccc1NC(=O)Cc1ccc(-n2cccc2)cc1 | inconclusive: 11.2 µM [inhibitor, single point] |
| Cc1ccc(NC(=O)Cn2nnc(-c3nc(-c4ccc(Cl)cc4)no3)c2N)cc1C | inconclusive: 35.5 µM [inhibitor, single point] |
| Cc1nc2c(C(=O)NCCc3ccccc3)c[nH]n2c(=O)c1Cc1ccc(F)cc1Cl | inconclusive: 28.2 µM [inhibitor, single point] |
| COc1ccc2[nH]cc(CCNC(=O)c3cnn(-c4ccccc4Cl)c3C3CCN(C(=O)OC(C)(C)C)CC3)c2c1 | inconclusive: 11.2 µM [inhibitor, partial curve, poor fit] |
| O=C(Nc1ccnn1C1CCN(CCCC2CCCC2)CC1)c1ccccc1Cl | inconclusive: 15.8 µM [inhibitor, single point] |
| COc1ccc2[nH]c3nc(SCc4nnc(-c5ccccc5)o4)nnc3c2c1 | inconclusive: 12.6 µM [inhibitor, single point] |
| COc1ccc(CN2CCNC(=O)C2CC(=O)NC2CCCCCC2)c(F)c1 (centres undefined) | inactive |
| CC1CC(C)(C)CC2(C1)NC(=O)N(CC(=O)OCC(=O)Nc1cc(S(=O)(=O)N3CCCCC3)ccc1Cl)C2=O (centres undefined) | inconclusive: 35.5 µM [inhibitor, single point] |
| Cc1ccc(S(=O)(=O)N2CCCCC2CCNC(=O)C(=O)NCc2ccccc2C)cc1 (centres undefined) | inconclusive: 35.5 µM [inhibitor, single point] |
| Cc1ccc(NC(=O)/C(=C/c2ccc([N+](=O)[O-])cc2)NC(=O)c2ccccc2)cc1 | inconclusive: 20 µM [inhibitor, partial curve, poor fit] |
